PubChem BioAssay AID743279 (National Center for Advancing Translational Sciences (NCATS), 2014)
Hit rate of the full screen: of about 360,000 compounds, about 17,000 (4.7%) were called active. Inconclusive results, whose numbers are uncertain, are shown with a selection of clear calls. No stated cut-off is given here; in the data, active means activity change below about -50%; inconclusive means mostly about -30% to -49%; inactive means weaker than that.

experiment: qHTS for Inhibitors of Inflammasome Signaling: IL-1-beta AlphaLISA Primary Screen; conditions: THP-1 LPS/ATP IL-1B secretion, 16 h; at 57.5 µM, hits give low values
Method in brief: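 Secreted IL-1B measured by AlphaLISA bead assay after 16 h compound exposure of THP-1 cells; compounds (final up to 57.5 uM) added 1 h before LPS (250 ng/mL) and ATP (1.25 mM) stimulation; lower signal means less secretion.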
On the % scale 0 is the no-effect control and ±100 the full control effect.

SMILES | activity change
CCS(=O)(=O)c1nc2ccccc2n1Cc1ccccc1Cl | inconclusive: -30.1%
CN(C)c1ccc(-c2n[nH]c(=S)n2-c2ccccc2)cc1 | inactive: 12.2%
Cc1ccc(OC(C)C(=O)Nc2ccccc2C(=O)NCc2cccnc2)cc1C (stereo not given) | inactive: 11.2%
Cc1ccc(NC(=S)NCc2ccccc2)cc1[N+](=O)[O-] | inconclusive: -48.3%
O=C(Nc1cc(F)ccc1F)N1CCN(c2ccnc3cc(Cl)ccc23)CC1 | inconclusive: -30.2%
CCN(CC)CCC(=O)N1c2ccccc2Sc2ccc(NC(=O)OC)cc21 | active: -79.1%
COc1ccc([C@H]2CC(=O)C=C(c3ccc(Cl)c(Cl)c3)C2)cc1 | inconclusive: -30.3%
Cc1cc(C)c(C(=O)/C=C/c2ccc(C(C)C)cc2)c(=O)[nH]1 | active: -117%
Cc1ccnc(NC(=O)c2ccc(Cl)c(S(=O)(=O)N3CCCCC3)c2)c1 | inconclusive: -48.1%
C(=N\c1nc2ccccc2n1Cc1ccccc1)/c1cccs1 | active: -67.5%
N#CC(C#N)=Cc1ccc(NC(=O)c2ccc(Br)cc2)cc1 | inconclusive: -45.6%
COC(=O)C1=C(C)N(Cc2ccccc2)C(=NCc2cccc(C(F)(F)F)c2)N[C@H]1c1cccc(C(F)(F)F)c1 | active: -101%
O=C(NCCc1ccccc1)c1ccc2nc(-c3ccco3)c(-c3ccco3)nc2c1 | inconclusive: -39.8%
O=C1OCc2cc(NC(=O)C34CC5CC(CC(C5)C3)C4)ccc21 | inconclusive: -31.2%
Cc1ccc(Cn2ncc3c(N4CCN(CCc5ccccc5)CC4)ncnc32)cc1 | inactive: 1.9%
CCc1ccc(C(=O)N/N=C/c2ccncc2)s1 | inconclusive: -38.2%
O=C(NCC1CCCO1)c1cccc(NC(=O)c2ccc(Br)cc2)c1 (stereo not given) | inconclusive: -43.6%
COc1ccc(CCNC(=O)c2cc([C@@H](NC(=O)OC(C)(C)C)C(C)C)sc2N)cc1OC | inconclusive: -37.9%
Cc1ccc(NS(=O)(=O)c2cc(NC(=O)c3ccc4c(c3)NC(=O)CS4)ccc2Cl)c(C)c1 | inconclusive: -34.3%
O=C(Nc1ccccc1N1CCOCC1)c1cccc(Oc2ccccc2)c1 | inconclusive: -42.4%
COc1ccc(-c2nc(C)ncc2N=Nc2ccccc2)cc1 | inconclusive: -30.4%
Cc1cc(C)c(NC(=O)CSc2nnc(SCC(=O)Nc3c(C)cc(C)cc3C)n2N)c(C)c1 | inactive: 1.09%

SMILES | activity change
COc1cccc(C2=CC(=O)C[C@H](c3ccc(F)cc3)C2)c1 | inconclusive: -36.4%
NS(=O)(=O)c1ccc(CCNC(=O)CNC(=O)Cc2ccccc2)cc1 | inactive: 12.6%
O=C(CN(Cc1ccc(F)cc1)C(=O)c1csnn1)NCc1ccc2c(c1)OCO2 | inactive: -9.04%
CCN1CCN(Cc2ccc(NC(=O)c3ccc(C)c(NC(=O)c4nccn4C)c3)cc2C(F)(F)F)CC1 | active: -58.5%
CCOc1cc(CNC(C)(C)CO)cc(Br)c1OCc1ccc(Cl)cc1Cl | inconclusive: -39.2%
c1ccc(Cn2nnnc2C(c2cccs2)N2CCc3ccccc3C2)cc1 (stereo not given) | inactive: -1.46%
CCOc1cccc(C(=O)NC(=S)Nc2cccc(NC(=O)c3ccccc3Cl)c2)c1 | inconclusive: -37.8%
COc1ccc(-c2noc(-c3ccccc3C(=O)NCc3ccco3)n2)cc1OC | inconclusive: -31.7%
CCN1CCN(c2cc(C)c3cc(NC(=O)c4cc(OC)cc(OC)c4)ccc3n2)CC1 | inconclusive: -30.5%
O=C(NCCSCc1ccco1)Nc1cccc(Cl)c1 | inconclusive: -49.8%
OCC(O)/C=N/Nc1nc(Nc2ccccc2)nc(Nc2ccccc2)n1 (stereo not given) | inconclusive: -42.8%
CC1(C)CC(NC(=O)c2ccc(-c3ccc([N+](=O)[O-])cc3)o2)CC(C)(C)N1 | inconclusive: -39.3%
O=[N+]([O-])c1ccc(CN2CCN(c3ccc([N+](=O)[O-])cc3)CC2)cc1 | active: -53.6%
CCc1nc2ccc(C(=O)NCc3ccc4c(c3)OCO4)cn2c1N(CC)Cc1cccc(Br)c1 | inconclusive: -34.4%
Cc1sc2ncnc(N3CCC(C(=O)N(C)CC(=O)Nc4cccc(F)c4)CC3)c2c1C | inconclusive: -38.7%
CC#CC(=O)N1CCC(n2nccc2NC(=O)CCc2ccccc2)CC1 | inconclusive: -40%
CCC1S/C(=N/N=C/c2cccs2)NC1=O (stereo not given) | inactive: 5.94%
Cc1cc(C(=O)Nc2ccc(OCc3ccccc3)cc2)c(C)o1 | active: -60.1%
COc1ccc2nc(N=Nc3ccc(N(C)C)cc3)sc2c1 | inactive: -10.3%
O=C1N(Cc2cccc(Cl)c2)C[C@@H]2C[C@@H](c3cccn3-c3ccccn3)N3CCC[C@@]123 | inconclusive: -33.4%
Cn1cc(C(=O)NCc2ccc(F)cc2)c(=O)c2cc(S(=O)(=O)N3CCCCC3)ccc21 | inconclusive: -32.4%
Cn1c2c(c(=O)[nH]c1=O)C(c1ccc(O)cc1)C1=C(N2)c2ccccc2C1=O (stereo not given) | inconclusive: -48.9%

SMILES | activity change
CC(C)Oc1cccc(C(=O)NC(=S)Nc2ccc(N3CCN(C)CC3)cc2)c1 | inactive: -3.68%
O=C(COc1ccc2ccccc2c1Br)Nc1cccnc1 | inconclusive: -36.2%
O=C(c1cc([N+](=O)[O-])ccc1Cl)N1CCN(Cc2ccc3c(c2)OCO3)CC1 | inconclusive: -43.5%
CCN(c1ccccc1)S(=O)(=O)c1ccc(Cl)c(NC(=O)CSc2nnc(C)s2)c1 | inactive: 4.09%
COc1ccc(C)cc1NC(=O)CN1C(=O)C2CC=CCC2C1=O (stereo not given) | inactive: 4.76%
COc1ccc(-n2cc(-c3ccc(OC(F)F)cc3)[n+]3c2CCCCC3)cc1 | inconclusive: -49.7%
Cc1ccc(Cl)cc1N1CCN(C(=O)CN(C2CCCCC2)S(C)(=O)=O)CC1 | inconclusive: -40.9%
COc1ccc(C(=O)Nc2cccc(NC(C)=O)c2)cc1 | inactive: 58.1%
O=C(CSc1nnc(-c2ccc(O)cc2)n1Cc1ccccc1)NNC(=O)c1ccc(Br)cc1 | active: -65.5%
Cn1nnc2cc(NC(=O)NCc3ccc4c(c3)OCO4)ccc21 | inconclusive: -47.1%
CN1CCN(c2ccc(CNC(=O)c3ccc(-c4cnn(C)c4)c4ccoc34)cc2)CC1 | inconclusive: -32.9%
O=C1Nc2ccccc2/C1=C/c1cccnc1 | active: -65.2%
CC1(C)Cc2nc3sc(C(=O)NCCCO)c(N)c3cc2CO1 | inconclusive: -33.2%
CCCCNc1nc(N)nc(-c2cc(Cl)ccc2O)n1 | active: -83.7%
Cc1ccc(-n2cc(CN(C)Cc3nccn3C)c(-c3ccc(F)cc3)n2)cc1 | active: -139%
Cc1onc(-c2c(F)cccc2Cl)c1C(=O)Nc1cccc2nsnc12 | inconclusive: -31.9%
Cc1nn(Cc2ccccc2)c(C)c1C(=O)NCCN1C(=O)S/C(=C\c2ccccc2)C1=O | inactive: -1.61%
COc1ccc(NC(=O)Nc2ccccc2OC)cc1 | inconclusive: -33.7%
CC(NC(=O)CSCc1ccc(Br)cc1)c1ccccc1 (stereo not given) | inconclusive: -47.7%
NC(=O)C1CCN(c2ncnc3c(-c4ccccc4)nsc23)CC1 | inconclusive: -37.9%
O=C(COc1ccc(Br)cc1)N1CCN(S(=O)(=O)/C=C/c2ccccc2)CC1 | inconclusive: -37.1%
O=C(CN(C1CCCCC1)S(=O)(=O)c1ccc(F)cc1)NCC1CCCO1 (stereo not given) | active: -106%

SMILES | activity change
O=C(c1ccc(S(=O)(=O)Cc2ccccc2Cl)c([N+](=O)[O-])c1)N1CCOCC1 | active: -99.8%
O=C(NCC(c1ccco1)N1CCN(c2ccccc2F)CC1)c1ccc2c(c1)OCO2 (stereo not given) | inactive: 1.11%
c1ccc(-c2nc(NCc3cccnc3)c3ccccc3n2)cc1 | inconclusive: -42%
Oc1ccccc1C=NNC(=S)Nc1ccc(F)cc1 | active: -95%
COc1ccc(-c2cc(C(=O)N3CCCCCC3)c3ccccc3n2)c(OC)c1 | inconclusive: -49.2%
CCOc1ccc(CCN2C(=S)N([C@@H](Cc3ccc(O)cc3)CN3CCC[C@@H]3CN3C(=S)NC[C@@H]3CC(C)C)C[C@@H]2CC(C)C)cc1 | active: -59%
CCOc1ccc(C(C)=O)cc1COC(=O)C(C)N=C1NS(=O)(=O)c2ccccc21 (stereo not given) | inactive: -11%
COc1ccc(N=C2SC(CC(=O)Nc3cccc(Cl)c3)C(=O)N2Cc2ccco2)cc1 (stereo not given) | inconclusive: -41.7%
Cc1ccccc1C(=O)N/N=C1/SCC(=O)N1Cc1ccccc1 | inactive: 0%
O=C(CCCCCN1C(=O)c2ccccc2C1=O)Nc1ccc(C(=O)O)cc1 | inactive: 26.4%
Cc1ccc(NCc2ccccc2OCc2ccccc2F)cc1 | inconclusive: -34.8%
O=C(Oc1oc(-c2ccco2)nc1C=Nc1ccccc1)c1ccco1 | inconclusive: -39.6%
CN1OC[C@@H]2CN(C(=O)CCc3ccccc3)[C@H](c3cccc(-c4ccc(C#N)cc4)c3)C[C@@H]21 | inconclusive: -45.4%
C[C@@H]1CN([C@@H](C)CO)C(=O)c2cc(NC(=O)CCC(F)(F)F)ccc2O[C@H]1CN(C)Cc1ccc(Cl)c(Cl)c1 | inconclusive: -41.5%
Cn1cccc1/C=N/n1c(-c2ccc(Cl)cc2)n[nH]c1=S | inactive: 18.8%
COc1ccccc1C(C)Nc1nc(-c2cccnc2)nc2ccccc12 (stereo not given) | inconclusive: -40.6%
CCN(Cc1ccncc1)C(=O)c1cc(COc2ccc(F)cc2F)on1 | inconclusive: -42.3%
COCCNC(=O)C1(C)CCCN(Cc2ccc(C)c3ccccc23)C1 (stereo not given) | inconclusive: -30.2%
CCOC(=O)c1c(CSc2ccccc2)n(C)c2cc(Br)c(O)c(CN(C)C)c12 | active: -86%
